The text below walks through data of paper PMC11494340, “High-throughput screening for small-molecule stabilizers of misfolded glucocerebrosidase in Gaucher disease and Parkinson’s disease” (Proceedings of the National Academy of Sciences of the …, 2024).

Data set [1] deals with T1, GCase in HiBiT-GCase-L444P H4 cells (Homo sapiens, UniProt P04062, L483P).
T1 construct: expressed in transfected cells; host or cells: GBA1-KO H4 human neuroglioma cells, one copy at the CLYBL safe-harbor locus, CAG promoter
T1 sequence (P04062 40-536 L483P): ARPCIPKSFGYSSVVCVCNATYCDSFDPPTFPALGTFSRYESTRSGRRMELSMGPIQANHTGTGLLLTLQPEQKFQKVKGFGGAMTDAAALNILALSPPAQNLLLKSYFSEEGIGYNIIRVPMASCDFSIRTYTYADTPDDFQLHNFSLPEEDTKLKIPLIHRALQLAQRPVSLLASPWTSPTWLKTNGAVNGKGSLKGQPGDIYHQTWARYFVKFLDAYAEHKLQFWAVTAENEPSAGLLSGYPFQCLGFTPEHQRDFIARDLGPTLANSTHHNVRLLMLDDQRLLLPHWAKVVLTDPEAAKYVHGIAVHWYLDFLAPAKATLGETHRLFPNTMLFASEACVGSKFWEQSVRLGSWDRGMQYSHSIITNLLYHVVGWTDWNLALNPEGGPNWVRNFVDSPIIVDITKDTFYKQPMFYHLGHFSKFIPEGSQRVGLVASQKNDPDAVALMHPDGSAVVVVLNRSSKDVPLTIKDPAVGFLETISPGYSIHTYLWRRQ
The experiment in a line: GCase activity assay (4-MUG) in lysates of compound-treated cells. Particulars: read-out: GCase activity (%) HiBiT-L444P. The data set is classed as cell-based.

Data set [2] concerns the target T2, GCase in spots of LAMP1, HiBiT-GCase-L444P H4 cells (Homo sapiens, UniProt P04062, L483P).
T2 construct: expressed in transfected cells; host or cells: GBA1-KO H4 human neuroglioma cells, one copy at the CLYBL safe-harbor locus, CAG promoter
T2 sequence (P04062 40-536 L483P): T1 sequence (P04062 40-536 L483P)
The experiment in a line: hGCase-1/23 immunofluorescence assay of GCase translocation to the lysosome. It counts as cell-based. As to conditions: 100 nM, ~34 h.

Data set [3] deals with T3, HiBiT-GCase-L444P (Homo sapiens, UniProt P04062, L483P).
T3 sequence (P04062 40-536 L483P): T1 sequence (P04062 40-536 L483P)
Details: AUC: unit not given beside the values.

The test system of data set [4] is GluSph accumulation in HiBiT-GCase-L444P H4 cells. The experiment in a line: Glucosylsphingosine (GluSph) levels by SFC-MS/MS. The data set is classed as cell-based, human. As to conditions: 100 nM, 48 h.
In data set [5] the target is T4, GCase-L444P lysosomal activity in HiBiT-GCase-L444P H4 cells (Homo sapiens, UniProt P04062, L483P).
T4 sequence (P04062 40-536 L483P): T1 sequence (P04062 40-536 L483P)
The experiment in a line: LysoFix-GBA high-content lysosomal GCase activity assay. Particulars: 24 h compound incubation, LysoFix-GBA 5 μM.

The target of data set [6] is T3, HiBiT-GCase-L444P. Nature of the data set: cell-based.
Data set [7] relates to HiBiT-GCase-L444P H4 cells. Nature of the data set: CellTiter-Glo cytotoxicity testing.

pEC50: −log10 of the molar value. Where two headings read alike, the source gives them in different places.

The AC50 is the concentration giving half of the maximal activity seen. As usually defined, the pEC50 is the EC50 on a negative log10 scale, so that one unit is a factor of ten. For the molecule `CC[C@H](O)[C@@H](C)[C@H]1O[C@@H]1C[C@H](C)/C=C/C=C(\C)[C@H]1OC(=O)C[C@H](O)CC[C@@](C)(O)[C@@H](OC(C)=O)/C=C/[C@@H]1C` [NCGC00347424-08, Pladienolide B], the activity at 0.1 µM in data set [1] was 5.9%. In addition, the “Increase in lysosomal GCase staining relative to DMSO” value in data set [2] is “threefold increase”. At HiBiT-GCase-L444P [3] (follow-up screen, 24 h), this molecule yielded an AUC of 1014.3. The Efficacy on HiBiT-GCase-L444P [3] (follow-up screen, 24 h, relative to DMSO control) is given as 267; at HiBiT-GCase-L444P [3] (normalized to DMSO, 100% efficacy reflects a doubling of GCase levels), 266.5%. On HiBiT-GCase-L444P [3] (qHTS curve class, follow-up screen, 24 h), this molecule gave a CC-v2 of 1.1. Moreover, the “Effect on GluSph accumulation” value in data set [4] was “a reduction in GluSph levels was observed”. For the same molecule, the “LysoFix-GBA response (GCase-L444P lysosomal activity)” value in data set [5] is “two- to fourfold”. In addition, half-maximal activity at HiBiT-GCase-L444P [6] (AC50) was put at 9.43 nM. At HiBiT-GCase-L444P [6], this molecule gave a pEC50 of 8.03. Also, the Cytotoxicity result is “strong cytotoxicity” in data set [7] (listed as Pladienolide B) and “severe cytotoxic effect” in data set [7] (listed as pladienolide B).
